Measurements: publication PMC4022732
No constants are given. Whether binding was seen depends on the method and setting. Binding seen in cells or lysates may run through a third protein.

The chains behind the UniProt entries cited, without tags or fusion partners.
UniProt P9WPE7: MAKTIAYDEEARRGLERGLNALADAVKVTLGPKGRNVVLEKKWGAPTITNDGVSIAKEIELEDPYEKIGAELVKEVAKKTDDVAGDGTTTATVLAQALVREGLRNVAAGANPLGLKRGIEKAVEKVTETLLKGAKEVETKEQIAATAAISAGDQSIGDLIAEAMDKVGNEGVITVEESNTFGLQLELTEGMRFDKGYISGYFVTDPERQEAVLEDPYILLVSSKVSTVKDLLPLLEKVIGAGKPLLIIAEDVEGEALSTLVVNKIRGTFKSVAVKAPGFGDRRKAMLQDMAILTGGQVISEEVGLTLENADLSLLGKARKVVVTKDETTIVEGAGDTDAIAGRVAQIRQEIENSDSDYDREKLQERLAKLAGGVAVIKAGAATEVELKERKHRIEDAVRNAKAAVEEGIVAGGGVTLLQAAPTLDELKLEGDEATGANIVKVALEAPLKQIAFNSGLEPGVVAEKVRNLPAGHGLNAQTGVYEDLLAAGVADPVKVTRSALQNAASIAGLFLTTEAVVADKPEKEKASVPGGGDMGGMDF
UniProt P9WGI1: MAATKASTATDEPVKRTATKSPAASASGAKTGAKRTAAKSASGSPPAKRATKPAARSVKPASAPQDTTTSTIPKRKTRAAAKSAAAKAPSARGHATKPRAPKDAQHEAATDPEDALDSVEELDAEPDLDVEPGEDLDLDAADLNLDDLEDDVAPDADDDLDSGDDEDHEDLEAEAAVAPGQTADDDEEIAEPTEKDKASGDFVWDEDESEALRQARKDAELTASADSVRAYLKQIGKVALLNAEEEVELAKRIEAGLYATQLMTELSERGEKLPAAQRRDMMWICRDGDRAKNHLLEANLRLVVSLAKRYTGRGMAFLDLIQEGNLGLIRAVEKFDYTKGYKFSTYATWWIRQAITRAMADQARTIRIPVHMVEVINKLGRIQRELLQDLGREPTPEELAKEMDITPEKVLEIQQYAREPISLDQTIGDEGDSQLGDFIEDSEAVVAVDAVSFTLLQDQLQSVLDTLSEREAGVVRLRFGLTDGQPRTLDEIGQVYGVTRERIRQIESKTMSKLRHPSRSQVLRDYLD

Molecular target: Mtb GroEL2 (Rv0440, hsp65), M-PFC bait fusion (Mycobacterium tuberculosis H37Rv) (UniProt P9WPE7)
Assay: split reporter

Substance: Mtb SigA, M-PFC control fusion (from UniProt P9WGI1 1-528)
- binding: no binding
